For assay [1], the target named is T1, Human CAIX (carbonic anhydrase IX) (human, UniProt Q16790 59-414). Description: ELISA screening, captured Z-ABD fusion, biotinylated human CAIX 0.25 ug/ml.
Assay [2] addresses T1, Human CAIX (carbonic anhydrase IX). Description: ELISA titration of biotinylated human CAIX on captured Z-ABD fusion.
The target of assay [3] is T2, CAIX on the surface of LS174T and SK-RC-52 cells (UniProt Q16790 38-459). Description: flow cytometry titration on SK-RC-52 cells. Background: In flow cytometry, cells or beads pass a laser one at a time.
For assay [4], the target named is T2, CAIX on the surface of LS174T and …. The experiment in a line: flow cytometry titration on SK-RC-52 cells, EC50 compared with that of Z08693; told of the maturated binders as a group.
For assay [5], the target named is T1, Human CAIX (carbonic anhydrase IX). Description: Biacore, Z variant over immobilized human CAIX, 1:1 model. For orientation: Surface plasmon resonance follows binding to a sensor surface in real time, without labels.
Assay [6] shares this target. Description: ELISA screening, periplasmic Z-Z03639 fusion captured by His6-(Z01157)2, biotinylated human CAIX 0.5 or 1 ug/ml.

B1: Z07082 ABD fusion protein (designed binder, not shown: large carriers; small tags and cut ends)
chain: VDAKYAKEHIFAGWEISDLPNLTEQQRHAFIYKLWDDPSQSSELLSEAKKLNDSQAPK
notes: periplasmic sample
A word on the Kd: it is the concentration at which binding is half-saturated. Lower therefore signals a tighter complex. Regarding B1, in assay [1], the “absorbance at 450 nm” value was over 1 AU. In assay [2], this molecule displayed a Kd of 5.2 nM.

B2: Z07104 ABD fusion protein (designed binder, not shown: large carriers; small tags and cut ends)
chain: VDAKYAKENIFAGWEISDLPNLTIDQRNAFIYKLWDDPSQSSELLSEAKKLNDSQAPK
notes: periplasmic sample
Regarding B2, the “absorbance at 450 nm” value in assay [1] is over 1 AU. The same molecule had a Kd in assay [2] of 4.3 nM.

B3: Z07084 ABD fusion protein (designed binder, not shown: large carriers; small tags and cut ends)
chain: VDAKYAKEWWWAGIEIADLPNLTQQQRDAFIYKLWDDPSQSSELLSEAKKLNDSQAPK
notes: periplasmic sample
In the case of B3, the “absorbance at 450 nm” value in assay [1] was over 1 AU. In assay [2], this molecule returned a Kd of 11 nM.

B4: Z07096 ABD fusion protein (designed binder, not shown: large carriers; small tags and cut ends)
chain: VDAKYAKENIFAGWEIDELPNLTEYQRNAFIYKLWDDPSQSSELLSEAKKLNDSQAPK
notes: periplasmic sample
Consider B4, for which the “absorbance at 450 nm” value in assay [1] is over 1 AU. The molecule also came in with a Kd in assay [2] of 2.5 nM.

B5: Z07100 ABD fusion protein (designed binder, not shown: large carriers; small tags and cut ends)
chain: VDAKYAKEHLFAGWEIDDLPNLTDHQRNAFIYKLWDDPSQSSELLSEAKKLNDSQAPK
notes: periplasmic sample
Consider B5, for which the “absorbance at 450 nm” value in assay [1] is over 1 AU. In assay [2], this molecule came in with a Kd of 6.4 nM.

B6: Z07103 ABD fusion protein (designed binder, not shown: large carriers; small tags and cut ends)
chain: VDAKYAKEHLFAGWEIQDLPNLTEDQRNAFIYKLWDDPSQSSELLSEAKKLNDSQAPK
notes: periplasmic sample
On to B6, for which, in assay [1], the “absorbance at 450 nm” value is over 1 AU. This molecule also yielded a Kd in assay [2] of 15 nM.

B7: Z07095 ABD fusion protein (designed binder, not shown: large carriers; small tags and cut ends)
chain: VDAKYAKEHWAAGWEIDDLPNLTEFQRNAFIYKLWDDPSQSSELLSEAKKLNDSQAPK
notes: periplasmic sample
For the molecule B7, the “absorbance at 450 nm” value in assay [1] was over 1 AU. In addition, in assay [2], the Kd was determined as 4.5 nM.

B8: Z06949 ABD fusion protein (designed binder, not shown: large carriers; small tags and cut ends)
chain: VDAKYAKEWRWAGVEIQDLPNLTQQQRDAFIYKLWDDPSQSSELLSEAKKLNDSQAPK
notes: periplasmic sample
Regarding B8, the “absorbance at 450 nm” value in assay [1] is over 1 AU. In addition, the Kd in assay [2] was 14 nM.

B9: Z07034 ABD fusion protein (designed binder, not shown: large carriers; small tags and cut ends)
chain: VDAKYAKEWWYAGVEIADLPNLTQQQRDAFIYKLWDDPSQSSELLSEAKKLNDSQAPK
notes: periplasmic sample
For B9, the “absorbance at 450 nm” value in assay [1] is over 1 AU. In assay [2], the Kd turned out to be 9.4 nM.

B10: Z07112 ABD fusion protein (designed binder, not shown: large carriers; small tags and cut ends)
chain: VDAKYAKENIWAGWEIDDLPNLTERQRNAFIYKLWDDPSQSSELLSEAKKLNDSQAPK
notes: periplasmic sample
Regarding B10, the “absorbance at 450 nm” value in assay [1] was over 1 AU. This molecule also yielded a Kd in assay [2] of 5.6 nM.

B11: Z07089 ABD fusion protein (designed binder, not shown: large carriers; small tags and cut ends)
chain: VDAKYAKENIFAGWEITDLPNLTVQQRHAFIYKLWDDPSQSSELLSEAKKLNDSQAPK
notes: periplasmic sample
B11: in assay [1], the “absorbance at 450 nm” value was over 1 AU. The Kd in assay [2] is 2.7 nM.

B12: Z07091 ABD fusion protein (designed binder, not shown: large carriers; small tags and cut ends)
chain: VDAKYAKENLFAGWEIDDLPNLTESQRNAFIYKLWDDPSQSSELLSEAKKLNDSQAPK
notes: periplasmic sample
Take B12: the “absorbance at 450 nm” value in assay [1] is over 1 AU. Further, in assay [2], binding was put at a Kd of 1.8 nM.

B13: Z07090 ABD fusion protein (designed binder, not shown: large carriers; small tags and cut ends)
chain: VDAKYAKENLFAGWEIDDLPNLTVQQRNAFIYKLWDDPSQSSELLSEAKKLNDSQAPK
notes: periplasmic sample
In the case of B13, the “absorbance at 450 nm” value in assay [1] was over 1 AU. In assay [2], this molecule gave a Kd of 4 nM.

B14: Z07064 ABD fusion protein (designed binder, not shown: large carriers; small tags and cut ends)
chain: VDAKYAKEWRYASIEIADLPNLTQRQRDAFIYKLWDDPSQSSELLSEAKKLNDSQAPK
notes: periplasmic sample
Consider B14, for which the “absorbance at 450 nm” value in assay [1] was over 1 AU. The molecule also displayed a Kd in assay [2] of 6.1 nM.

B15: Z07087 ABD fusion protein (designed binder, not shown: large carriers; small tags and cut ends)
chain: VDAKYAKEHLFAGWEIGDLPNLTEQQRHAFIYKLWDDPSQSSELLSEAKKLNDSQAPK
notes: periplasmic sample
In the case of B15, the “absorbance at 450 nm” value in assay [1] is over 1 AU. Binding in assay [2] was characterised by a dissociation constant (Kd) of 12 nM.

B16: His6-Z06936 (designed binder)
chain: MGSSHHHHHHLQVDAKYAKENLFAGWEIDDLPNLTEDQRNAFIYKLWDDPSQSSELLSEAKKLNDSQAPKVD
notes: monomer
As a reminder, the EC50 is the concentration at which the effect is half-maximal. High values mean lower potency in that assay, low ones higher potency in that assay. By koff is commonly meant the first-order rate constant of dissociation. Low readings indicate slow dissociation, high ones fast dissociation. The kon is the rate constant with which the complex forms. Regarding B16, a half-maximal effect in assay [3] (EC50) was put at 15 nM. For the same molecule, in assay [4], the “fold increase in binding ability against Z08693” value (“fold increase in binding ability” for short) was about 100 times. In assay [5], this molecule had a Kd of 27 nM, a koff of 0.00208 s⁻¹ and a kon of 77700 M⁻¹ s⁻¹.

B17: His6-Z06961 (designed binder)
chain: MGSSHHHHHHLQVDAKYAKENLFAGWEIGDLPNLTEQQRHAFIYKLWDDPSQSSELLSEAKKLNDSQAPKVD
notes: monomer
As to B17, the concentration for a half-maximal effect (EC50) in assay [3] is 17 nM. Besides, the “fold increase in binding ability” value in assay [4] is about 100 times.

B18: His6-Z07091 (designed binder)
chain: MGSSHHHHHHLQVDAKYAKENLFAGWEIDDLPNLTESQRNAFIYKLWDDPSQSSELLSEAKKLNDSQAPKVD
notes: monomer
In assay [3], B18 displayed an EC50 of 18 nM. In assay [4], the “fold increase in binding ability” value was about 100 times.

B19: His6-Z07089 (designed binder)
chain: MGSSHHHHHHLQVDAKYAKENIFAGWEITDLPNLTVQQRHAFIYKLWDDPSQSSELLSEAKKLNDSQAPKVD
notes: monomer
As for B19, in assay [3], it took 12 nM to reach a half-maximal effect (EC50). Further, the “fold increase in binding ability” value in assay [4] is about 100 times.

B20: His6-Z08693 (designed binder)
chain: MGSSHHHHHHLQVDAKYAKEWKFASIEIADLPNLTQHQKDAFIFKLWDDPSQSSELLAEAKKLNDSQAPKVD
notes: also called Z04196 with the amino acid substitution A54S
In turn, B20 yielded an EC50 in assay [3] of 1820 nM. This counts as single-digit micromolar.

B21: His6-Z06984 (designed binder)
chain: MGSSHHHHHHLQVDAKYAKENIFAGWEIDDLPNLTTYQRNAFIYKLWDDPSQSSELLSEAKKLNDSQAPKVD
notes: monomer
B21 showed an EC50 in assay [3] of 11 nM. For the same molecule, the “fold increase in binding ability” value in assay [4] was about 100 times.

B22: His6-Z06999 (designed binder)
chain: MGSSHHHHHHLQVDAKYAKEHLFAGWEITDLPNLTEQQRNAFIYKLWDDPSQSSELLSEAKKLNDSQAPKVD
notes: monomer
Consider B22, for which, in assay [3], a half-maximal effect (EC50) was put at 16 nM. The “fold increase in binding ability” value in assay [4] was about 100 times.

B23: His6-Z06942 (designed binder)
chain: MGSSHHHHHHLQVDAKYAKENLFAGWEISDLPNLTDYQRNAFIYKLWDDPSQSSELLSEAKKLNDSQAPKVD
notes: monomer
In the case of B23, the EC50 in assay [3] came out at 14 nM. Besides, the “fold increase in binding ability” value in assay [4] was about 100 times. Further, in assay [5], the Kd is 11 nM, the koff turned out to be 0.00188 s⁻¹ and the association rate constant (kon) came out at 167000 M⁻¹ s⁻¹.

B24: His6-Z06919 (designed binder)
chain: MGSSHHHHHHLQVDAKYAKEHLFAGWEIEDLPNLTEYQRNAFIYKLWDDPSQSSELLSEAKKLNDSQAPKVD
notes: monomer
Consider B24, for which, in assay [3], the EC50 is 20 nM. The “fold increase in binding ability” value in assay [4] was about 100 times.

B25: His6-Z06986 (designed binder)
chain: MGSSHHHHHHLQVDAKYAKENLFAGWEINDLPNLTEYQRNAFIYKLWDDPSQSSELLSEAKKLNDSQAPKVD
notes: monomer
In assay [3], B25 registered an EC50 of 12 nM. The “fold increase in binding ability” value in assay [4] was about 100 times.

B26: His6-Z06976 (designed binder)
chain: MGSSHHHHHHLQVDAKYAKENIFAGWEIDDLPNLTDEQRNAFIYKLWDDPSQSSELLSEAKKLNDSQAPKVD
notes: monomer
In assay [3], B26 gave an EC50 of 13 nM. The “fold increase in binding ability” value in assay [4] is about 100 times. In assay [5], this molecule displayed a Kd of 32 nM, a koff of 0.00292 s⁻¹ and a kon of 90400 M⁻¹ s⁻¹.

B27: His6-Z06959 (designed binder)
chain: MGSSHHHHHHLQVDAKYAKENLFAGWEITDLPNLTIEQRNAFIYKLWDDPSQSSELLSEAKKLNDSQAPKVD
notes: monomer
As to B27, in assay [3], the EC50 came out at 18 nM. Besides, in assay [4], the “fold increase in binding ability” value was about 100 times.

B28: His6-Z07084 (designed binder)
chain: MGSSHHHHHHLQVDAKYAKEWWWAGIEIADLPNLTQQQRDAFIYKLWDDPSQSSELLSEAKKLNDSQAPKVD
notes: monomer
B28 came in with an EC50 in assay [3] of 37 nM. Besides, the “fold increase in binding ability” value in assay [4] is about 100 times. In assay [5], the Kd turned out to be 18 nM, the koff turned out to be 0.0106 s⁻¹ and the kon was 598000 M⁻¹ s⁻¹.

B29: AQHDEALE-[Z04187]-VDYV-[Z03639]-YVPG (designed binder)
chain: AQHDEALEVDAKYAKENLWAGWEIDDLPNLTHSQRNAFIYKLWDDPSQSSELLAEAKKLNDAQAPKVDYVVDNKFNKELGWATWEIFNLPNLNGVQVKAFIDSLRDDPSQSANLLAEAKKLNDAQAPKYVPG
notes: periplasmic fraction
As for B29, the binding result in assay [6] is “binds”.

B30: AQHDEALE-[Z04196]-VDYV-[Z03639]-YVPG (designed binder)
chain: AQHDEALEVDAKYAKEWKFASIEIADLPNLTQHQKDAFIFKLWDDPSQSSELLAEAKKLNDAQAPKVDYVVDNKFNKELGWATWEIFNLPNLNGVQVKAFIDSLRDDPSQSANLLAEAKKLNDAQAPKYVPG
notes: periplasmic fraction
Turning to B30, in assay [6], the binding result is “binds”.

B31: AQHDEALE-[Z04191]-VDYV-[Z03639]-YVPG (designed binder)
chain: AQHDEALEVDAKYAKEDVNAWQEIIKLPNLTIFQRDAFIYKLWDDPSQSSELLAEAKKLNDAQAPKVDYVVDNKFNKELGWATWEIFNLPNLNGVQVKAFIDSLRDDPSQSANLLAEAKKLNDAQAPKYVPG
notes: periplasmic fraction
As to B31, the binding result in assay [6] is reported as “binds”.

B32: AQHDEALE-[Z04208]-VDYV-[Z03639]-YVPG (designed binder)
chain: AQHDEALEVDAKYAKEHEWAGVEIQSLPNLTTQQKHAFIYKLWDDPSQSSELLAEAKKLNDAQAPKVDYVVDNKFNKELGWATWEIFNLPNLNGVQVKAFIDSLRDDPSQSANLLAEAKKLNDAQAPKYVPG
notes: periplasmic fraction
For the molecule B32, the binding result in assay [6] is “binds”.

Values taken from US20180230235A1 (Affibody, published 2018).
